# The other results are listed elsewhere or left out.
# B1: Epa7 (Candida glabrata), Q6DTM6_CANGB (protein)
# chain: MGSSHHHHHHSSGLVPRGSHMKDDYSSFLSNNNLGWTDPTEFPLGCSPNVTTPKNGLSMELYSYDLRKNGSYPCWDAAYLDPNYPRTGYKSHRLLAKVDGVTGNINFYYHATKGCTPEIDHLPASYNYPKPLTMTNFTMLLYGYFKPKVTGYHTFTISADDLLFVNFGAGNAFDCCKRESSADDFGNYQAYAVWGSQTAKDDLTVHLDAGLYYPIRIFFNNREYDAELSLTLKTESDSNPVIDFSDYFYSFDDTKDGCPGLVSYDTS
# Tests used:
# Test in all cases: glycan array binding signal (z-score within array); higher = stronger binding
# Settings in all cases: glycan notation: IUPAC condensed, linker removed
# [1] = target: Fuc(a1-3)[Gal(b1-4)]GlcNAc(b1-3)Gal(b1-4)[Fuc(a1-3)]GlcNAc(b1-3)Gal(b1-4)[Fuc(a1-3)]GlcNAc
# Method in brief: (§1)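 The binding signal is a Z-score computed within each array. Data were drawn from 3228 arrays in the Consortium for Functional Glycomics database, restricted to those with a known protein sequence. Scores were averaged over arrays of the same protein sequence at different concentrations or buffers, and over linkers, and negative values can be taken as non-binding.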
# [2] = target: Fuc(a1-3)[Gal(b1-4)]GlcNAc(b1-3)GalNAc
# Method in brief: as §1
# [3] = target: Fuc(a1-3)[Gal(b1-4)]GlcNAc(b1-4)Gal(b1-4)[Fuc(a1-3)]GlcNAc
# Method in brief: as §1
# [4] = target: Fuc(a1-3)[Gal(b1-4)]GlcNAc(b1-4)Gal(b1-4)[Fuc(a1-3)]GlcNAc(b1-4)Gal(b1-4)[Fuc(a1-3)]GlcNAc
# Method in brief: as §1
# [5] = target: Fuc(a1-3)[Gal(b1-4)]GlcNAc(b1-6)GalNAc
# Method in brief: as §1
# [6] = target: Fuc(a1-3)[Gal(b1-4)]GlcNAc(b1-6)[Gal(b1-3)GlcNAc(b1-3)]Gal(b1-4)Glc
# Method in brief: as §1
# [7] = target: Fuc(a1-3)[Gal(b1-4)]GlcNAc6S
# Method in brief: as §1
# [8] = target: Fuc(a1-3)[Gal3S(b1-4)]Glc
# Method in brief: as §1
# [9] = target: Fuc(a1-3)[Gal3S(b1-4)]Glc6S
# Method in brief: as §1
# [10] = target: Fuc(a1-3)[Gal3S(b1-4)]GlcNAc
# Method in brief: as §1
# [11] = target: Fuc(a1-3)[Gal3S(b1-4)]GlcNAc6S
# Method in brief: as §1
# [12] = target: Fuc(a1-3)[GalNAc(b1-4)]Gal(b1-4)GlcNAc
# Method in brief: as §1
# [13] = target: Fuc(a1-3)[GalNAc(b1-4)]GlcNAc
# Method in brief: as §1
# [14] = target: Fuc(a1-3)[GalNAc(b1-4)]GlcNAc6S
# Method in brief: as §1
# Fuc(a1-4)GlcNAc = target: Fuc(a1-4)GlcNAc
# Method in brief: as §1
# Fuc(b1-3)GlcNAc = target: Fuc(b1-3)GlcNAc
# Method in brief: as §1
# Gal(a1-2)Gal = target: Gal(a1-2)Gal
# Method in brief: as §1
# Gal(a1-3)Gal = target: Gal(a1-3)Gal
# Method in brief: as §1
# Gal(a1-3)Gal(b1-3)Glc = target: Gal(a1-3)Gal(b1-3)Glc
# Method in brief: as §1
# Gal(a1-3)Gal(b1-3)GlcNAc = target: Gal(a1-3)Gal(b1-3)GlcNAc
# Method in brief: as §1
# [15] = target: Gal(a1-3)Gal(b1-3)GlcNAc(b1-2)Man
# Method in brief: as §1
# [16] = target: Gal(a1-3)Gal(b1-3)GlcNAc(b1-2)Man(a1-3)[Gal(a1-3)Gal(b1-3)GlcNAc(b1-2)Man(a1-6)]Man(b1-4)GlcNAc(b1-4)GlcNAc
# Method in brief: as §1
# [17] = target: Gal(a1-3)Gal(b1-3)GlcNAc(b1-3)GalNAc
# Method in brief: as §1
# [18] = target: Gal(a1-3)Gal(b1-3)GlcNAc(b1-6)GalNAc
# Method in brief: as §1
# [19] = target: Gal(a1-3)Gal(b1-3)[Fuc(a1-4)]GlcNAc(b1-2)Man(a1-3)[Gal(a1-3)Gal(b1-3)[Fuc(a1-4)]GlcNAc(b1-2)Man(a1-6)]Man(b1-4)GlcNAc(b1-4)GlcNAc
# Method in brief: as §1
# Gal(a1-3)Gal(b1-4)Glc = target: Gal(a1-3)Gal(b1-4)Glc
# Method in brief: as §1
# Gal(a1-3)Gal(b1-4)GlcNAc = target: Gal(a1-3)Gal(b1-4)GlcNAc
# Method in brief: as §1
# [20] = target: Gal(a1-3)Gal(b1-4)GlcNAc(b1-2)Man
# Method in brief: as §1
# [21] = target: Gal(a1-3)Gal(b1-4)GlcNAc(b1-2)Man(a1-3)[Gal(a1-3)Gal(b1-4)GlcNAc(b1-2)Man(a1-6)]Man(b1-4)GlcNAc(b1-4)GlcNAc
# Method in brief: as §1
# [22] = target: Gal(a1-3)Gal(b1-4)GlcNAc(b1-3)GalNAc
# Method in brief: as §1
# [23] = target: Gal(a1-3)Gal(b1-4)GlcNAc(b1-6)GalNAc
# Method in brief: as §1
# [24] = target: Gal(a1-3)Gal(b1-4)[Fuc(a1-3)]GalNAc
# Method in brief: as §1
# [25] = target: Gal(a1-3)Gal(b1-4)[Fuc(a1-3)]GlcNAc
# Method in brief: as §1
# [26] = target: Gal(a1-3)Gal(b1-4)[Fuc(a1-3)]GlcNAc(b1-2)Man(a1-3)[Gal(a1-3)Gal(b1-4)[Fuc(a1-3)]GlcNAc(b1-2)Man(a1-6)]Man(b1-4)GlcNAc(b1-4)GlcNAc
# Method in brief: as §1
# Gal(a1-3)GalNAc = target: Gal(a1-3)GalNAc
# Method in brief: as §1
# Gal(a1-3)GlcNAc = target: Gal(a1-3)GlcNAc
# Method in brief: as §1
# [27] = target: Gal(a1-3)[Gal(a1-4)]Gal(b1-4)GlcNAc
# Method in brief: as §1
# [28] = target: Gal(a1-4)Gal(b1-3)GlcNAc(b1-2)Man(a1-3)[Gal(a1-4)Gal(b1-3)GlcNAc(b1-2)Man(a1-6)]Man(b1-4)GlcNAc(b1-4)GlcNAc
# Method in brief: as §1
# Gal(a1-4)Gal(b1-4)Gal = target: Gal(a1-4)Gal(b1-4)Gal
# Method in brief: as §1
# Gal(a1-4)Gal(b1-4)GalNAc = target: Gal(a1-4)Gal(b1-4)GalNAc
# Method in brief: as §1
# Gal(a1-4)Gal(b1-4)Glc = target: Gal(a1-4)Gal(b1-4)Glc
# Method in brief: as §1
# Gal(a1-4)Gal(b1-4)GlcNAc = target: Gal(a1-4)Gal(b1-4)GlcNAc
# Method in brief: as §1
# [29] = target: Gal(a1-4)Gal(b1-4)GlcNAc(b1-2)Man(a1-3)[Gal(a1-4)Gal(b1-4)GlcNAc(b1-2)Man(a1-6)]Man(b1-4)GlcNAc(b1-4)GlcNAc
# Method in brief: as §1
# [30] = target: Gal(a1-4)Gal(b1-4)GlcNAc(b1-3)Gal(b1-4)Glc
# Method in brief: as §1
# Gal(a1-4)GlcNAc = target: Gal(a1-4)GlcNAc
# Method in brief: as §1
binder,measurement,setting,value
B1,glycan array binding signal (z-score),[1],-0.127
same,glycan array binding signal (z-score),[2],-0.19
same,glycan array binding signal (z-score),[3],-0.271
same,glycan array binding signal (z-score),[4],-0.286
same,glycan array binding signal (z-score),[5],-0.112
same,glycan array binding signal (z-score),[6],-0.164
same,glycan array binding signal (z-score),[7],-0.233
same,glycan array binding signal (z-score),[8],-0.254
same,glycan array binding signal (z-score),[9],-0.279
same,glycan array binding signal (z-score),[10],-0.269
same,glycan array binding signal (z-score),[11],-0.237
same,glycan array binding signal (z-score),[12],-0.279
same,glycan array binding signal (z-score),[13],-0.213
same,glycan array binding signal (z-score),[14],-0.234
same,glycan array binding signal (z-score),Fuc(a1-4)GlcNAc,-0.253
same,glycan array binding signal (z-score),Fuc(b1-3)GlcNAc,-0.25
same,glycan array binding signal (z-score),Gal(a1-2)Gal,-0.251
same,glycan array binding signal (z-score),Gal(a1-3)Gal,-0.23
same,glycan array binding signal (z-score),Gal(a1-3)Gal(b1-3)Glc,-0.283
same,glycan array binding signal (z-score),Gal(a1-3)Gal(b1-3)GlcNAc,-0.245
same,glycan array binding signal (z-score),[15],-0.198
same,glycan array binding signal (z-score),[16],-0.142
same,glycan array binding signal (z-score),[17],-0.216
same,glycan array binding signal (z-score),[18],-0.21
same,glycan array binding signal (z-score),[19],-0.215
same,glycan array binding signal (z-score),Gal(a1-3)Gal(b1-4)Glc,-0.218
same,glycan array binding signal (z-score),Gal(a1-3)Gal(b1-4)GlcNAc,-0.169
same,glycan array binding signal (z-score),[20],-0.204
same,glycan array binding signal (z-score),[21],-0.185
same,glycan array binding signal (z-score),[22],-0.22
same,glycan array binding signal (z-score),[23],-0.215
same,glycan array binding signal (z-score),[24],-0.284
same,glycan array binding signal (z-score),[25],-0.201
same,glycan array binding signal (z-score),[26],-0.157
same,glycan array binding signal (z-score),Gal(a1-3)GalNAc,-0.077
same,glycan array binding signal (z-score),Gal(a1-3)GlcNAc,-0.278
same,glycan array binding signal (z-score),[27],-0.238
same,glycan array binding signal (z-score),[28],-0.188
same,glycan array binding signal (z-score),Gal(a1-4)Gal(b1-4)Gal,-0.273
same,glycan array binding signal (z-score),Gal(a1-4)Gal(b1-4)GalNAc,-0.255
same,glycan array binding signal (z-score),Gal(a1-4)Gal(b1-4)Glc,-0.168
same,glycan array binding signal (z-score),Gal(a1-4)Gal(b1-4)GlcNAc,-0.071
same,glycan array binding signal (z-score),[29],-0.176
same,glycan array binding signal (z-score),[30],-0.209
same,glycan array binding signal (z-score),Gal(a1-4)GlcNAc,-0.165

# From the supplement of paper PMC8728848
